± gives the standard deviation of the averaged measurements. The list shows a part of the results.
tested on: PfAP2-LT AP2 domain (GST-tagged); experiment: gcPBM binding intensity (ln(normalized median fluorescence intensity)); higher = stronger DNA binding
Outline: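 In this array assay, P. falciparum DNA-binding domains with a GST tag, expressed in E. coli, were applied for 1 h to primer-extended double-stranded 36-bp intergenic genomic probes and negative controls on an Agilent 4 × 180k array. Bound protein was visualised with Alexa488 anti-GST antibody at 488 nm. Binding intensity is the highest Masliner-normalised natural-log median intensity across replicate spots of either probe orientation.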

In order of rising “gcPBM binding intensity (ln)” value:
1. TTCTCACTTTTAAATTTTATTCAAAAATAAGGAAAG [XGTACX_negctrl_site444]  7.94 ± 0.3
2. TTTTTTAATAATAGGAAAATGAATATTATATCGAAT [TGCATGCA_negctrl_site543]  8.25 ± 0.47
3. ATAAAATAAGATCTTTTTTTTTTTTTTTTCTTTTCT [XGTACX_negctrl_site73]  8.29 ± 0.6
4. CCAACATTTTTTAGAAGTACATTTTTATATTTATTA [XGTACX_site5179]  8.29 ± 0.45
5. GGATTTTTCGAATCATGTACATATTTAATTAAAAAA [XGTACX_site7939]  8.34 ± 0.45
6. AAAAAAAAATAAATAAATATATATAATATTTATGTT [GTGCAC_negctrl_site520]  8.4 ± 0.47
7. TTTTTTTTTTTTTCAAGTACATAACTTACCCCTTTT [XGTACX_site6207]  8.43 ± 0.6
8. AGATATAGGAAAATAATATATATATATTTTTTTTTT [CACACA_negctrl_site461]  8.45 ± 0.53
9. ATAAAATAAAGGAAAAATATTAAGTTTTAAGAAAAT [CACACA_negctrl_site1066]  8.47 ± 0.53
10. TGGTTAATATGTGAAAGTACATATTATATTAAAATG [XGTACX_site2636]  8.52 ± 0.53
11. ATTTATTTATTTATTTGTACATATAAATATATCAAA [XGTACX_site7383]  8.54 ± 0.47
12. TAGATTCTTGAATAAGTGCAAAATATAATATTTATT  8.56 ± 0.42
13. TTATAATATCTATATATCTTTTACATTTATAAGTTT [CACACA_negctrl_site1473]  8.56 ± 0.52
14. TTTTTTTTTTGCACGTGTACATAAAAATATATATAT [XGTACX_site3116]  8.63 ± 0.45
15. TTTTTATTGCAATACTTATATTTTTTTATGATTAAA [TGCATGCA_negctrl_site147]  8.64 ± 0.64
16. TATATTTATTTATACACATGCATATTTTAAGGGCTC [TGCATGCA_site885]  8.66 ± 0.44
17. CATATAATTATATATCGTACATATTAATATAATTAC [XGTACX_site401]  8.68 ± 0.38
18. TATTTTGAAAAAGTTGCACACAAAATTTAAAAAAAA [CACACA_site8470]  8.68 ± 0.51
19. TACATTCATGTGTATTGTACAAACTATTTTATAATA [XGTACX_site7744]  8.68 ± 0.34
20. AAAGATTCTTTGAATTGTACAAATATATTTACTCAC [XGTACX_site8772]  8.68 ± 0.39
21. TTATATATTTATATTTGTACGTATAAATTTTTTTTT [XGTACX_site2833]  8.7 ± 0.54
22. CAATAATATATATATTGTACATTTTTTTTTATTATT [XGTACX_site3149]  8.7 ± 0.38
23. AAATAAAAACATAACAGTACAGTTAACATTTTTATA [XGTACX_site3479]  8.71 ± 0.39
24. TGTAATAATCTTACATGTACATACATATATTATATA [XGTACX_site4012]  8.71 ± 0.48
25. AAAGATGTTATATATATGTATATATATATGTAATAT [TGCATGCA_negctrl_site386]  8.72 ± 0.4
26. AAAAATAAAATAAAATAAAATAAACATACCATATGT [CACACA_negctrl_site594]  8.79 ± 0.5
27. CATTTAAATTATAAGTGTACACGATCATATTTCATC [XGTACX_site349]  8.79 ± 0.47
28. GCATATTTTATAATTTTACACACCATATAAAATAAT [CACACA_site8904]  8.79 ± 0.43
29. TGGTTACTGTCATTAGTTATTTCTTGTTGACAATTA [CACACA_negctrl_site416]  8.79 ± 0.41
30. TATAACTTTTTTATTACACACCTATGCAATATTATA [CACACA_site6570]  8.81 ± 0.39
31. GATGGAAGGTGAAAGCGTACTTATTATAGTAATATA [XGTACX_site303]  8.81 ± 0.42
32. TGCAGTCTGGAGAAAAGTACATAGTATCTGGTATCT [XGTACX_site2545]  8.83 ± 0.37
33. TATATAATATATATAGTGCATAAGTTCAAAAGAATA [GTGCAC_site9805]  8.84 ± 0.42
34. AGGTACTTTTTTAAAACACACATATAATATATACAC [CACACA_site1065]  8.88 ± 0.35
35. TTATATGCATAAAAACGTACAAAAATGTATTCATGT [XGTACX_site2215]  8.89 ± 0.38
36. TGGAAATTCTCAGGAGTGCATATTTGCAGTTTACGT [GTGCAC_site9768]  8.89 ± 0.47
37. ACAATCCTAACGACATGTACAAATATATATATTTTT [XGTACX_site7335]  8.9 ± 0.4
38. ATGTTCCATTTTACTTGTACTAATTTTTTCCTATCT [XGTACX_site6474]  8.9 ± 0.49
39. TACATATTTTTTATGTGTACATATTTTTTATGTGTA [XGTACX_site443]  8.92 ± 0.45
40. TTTTTTTTTTTTTTTGCACACAGGGTGTAGGACAAG [CACACA_site2842]  8.93 ± 0.36
41. ATAATGATATATTATAAACACACAAAGATGAATATA [CACACA_site8914]  8.93 ± 0.38
42. TAGAATGTATGTAGTGCACACCTCTATAATATATTA [CACACA_site1873]  8.93 ± 0.38
43. TATGGTGTAATTTAGTGTATTATATTATTTTGGTTG [GTGCAC_negctrl_site445]  8.96 ± 0.49
44. GTCTATTCAAAAAAGTGTACGGACATATAAACATAC [XGTACX_site6516]  8.96 ± 0.36
45. AACAAATAAATAAATAAAAAGCAAATATGTCTATAT [GTGCAC_negctrl_site414]  8.96 ± 0.4
46. ATTTCGTTCTTTTATGCACACTCAACATATAAATTA [CACACA_site8322]  8.96 ± 0.33
47. ATATATGTGCTAAAATGTACATAGTATAATATATTT [XGTACX_site1949]  8.96 ± 0.35
48. ATGGTTAAAAAAAGCATACACACTATCCTCTTTGCT [CACACA_site2552]  8.97 ± 0.54
49. ATATTTTTTTTTTTTTGTACATATATCATTATATAT [XGTACX_site866]  8.97 ± 0.49
50. ATGATAATTTTTTTCTCACACACAAATATTTTAATC [CACACA_site3665]  8.97 ± 0.46
51. TTAGCTATGATATATACACACCAACGAACGAAGAAA [CACACA_site6657]  8.98 ± 0.37
52. TTATATATTTTGATTGCACACAGAATTTAAATCATG [CACACA_site8735]  9 ± 0.35
53. TTATAATCCATAATTGCACACAATATATTCATATTT [CACACA_site3916]  9.02 ± 0.52
54. ATATATGTGTATGTATGTACTCATTTTTGTATATAT [XGTACX_site490]  9.02 ± 0.35
55. ATATTTAAGATTTAATCACACACATATATATTATAT [CACACA_site8946]  9.02 ± 0.44
56. ATAATAAATTATTATGTACACACATAATAGTATATA [CACACA_site8538]  9.04 ± 0.42
57. ATATATATATATAAATGTACATATGTATAATTCATA [XGTACX_site6679]  9.05 ± 0.39
58. AGTATACAGATATATACACACATATATTTATTTATA [CACACA_site6279]  9.07 ± 0.42
59. CAAAAGTATAATAATACACACACTTTAAAAGTTAAA [CACACA_site3343]  9.09 ± 0.48
60. GAGAGTAAAACAAATATACACACCATAAAGTTATAA [CACACA_site1686]  9.1 ± 0.49
61. TACAGATAATATATTGCACACGTCAGAATAATATAG [CACACA_site5036]  9.11 ± 0.43
62. TTACATAATATATGTACACACGCAAATACTTAGAAT [CACACA_site320]  9.12 ± 0.37
63. AAAAAGAAAAAACTTACACACATATATACAGACATG [CACACA_site550]  9.14 ± 0.35
64. AAACGATTACTGTGTACACACATAGTTATAAACATA [CACACA_site5195]  9.14 ± 0.45
65. TACATAAACATTTATACACACATTATGTATACATAT [CACACA_site405]  9.15 ± 0.4
66. TTTAATCATTTTAGCTTACACACAAAATTTTGTTAT [CACACA_site2938]  9.16 ± 0.4
67. GAATGTTAACGTTGCACACAAAAAAAAAGTATACAT [CACACA_site2415]  9.21 ± 0.42
68. TATATTATTTTCTTTTGTACACATATATATCAGTGT [XGTACX_site664]  9.24 ± 0.31
69. ATAATAATAAAGTATGCATGCATATAATATAATATA [TGCATGCA_site796]  9.27 ± 0.3
70. TTTTTGTAATGACACACACACAAACAGAAAAAATAA [CACACA_site7062]  9.29 ± 0.3
71. ATATATATATATATATGTACTTATAAGGTATATTTA [XGTACX_site3327]  9.38 ± 0.16
72. CCGTTGAACATATATGCACACACATAAAATAAAAAA [CACACA_site8761]  9.38 ± 0.42
73. AATATACAATAAAGGTGTACACATATATGATGCAAG [XGTACX_site7607]  9.39 ± 0.31
74. TTTGTTGACGGACACACACACATACAGATATATATA [CACACA_site5292]  9.4 ± 0.27
75. TATAATAATATTAACACACGTACAAAAGCAAACAAC [CACACA_site3494]  9.41 ± 0.27
76. TATTTTTCCATATGCACACACACCGTATCTAGAATA [CACACA_site6654]  9.47 ± 0.37
77. AAAATATATTCAACTTGTACATATATATATATATAT [XGTACX_site7629]  9.47 ± 0.16
78. CATTTGATAAGATACACACACAAGGAAAAAAATAAA [CACACA_site350]  9.48 ± 0.52
79. AATATTTATATTTACACACACATAATACCTATATGT [CACACA_site6167]  9.54 ± 0.34
80. ATATATATATTCCACACACACACAAAAAAAAAAAAA [CACACA_site3648]  9.57 ± 0.16
81. AAACAAAGAAAGAACACACATACACAATATACCTAC [CACACA_site2835]  9.59 ± 0.3
82. TTTTTGTCTGCATACGCACACACGTGTACCATCTTA [CACACA_site1173]  9.64 ± 0.34
83. AAGAAATATTTATACACACACACAAACATATATATA [CACACA_site1912]  9.8 ± 0.2
84. TAGATACATAAAAGTGGTACATATATATATATATAT [XGTACX_site6263]  9.96 ± 0.35
85. TATATATATATATATGTACACACATATATACCTTTC [CACACA_site8854]  10 ± 0.24
86. GTTATAGAAGCATTCACACACACACCCACATACACA [CACACA_site1465]  10.1 ± 0.11
87. AACTTTGGCAAACACACACACACACCCACACCCACA [CACACA_site588]  10.1 ± 0.42
88. AGGATATGCAGACACACACACATATATATATATATA [CACACA_site2201]  10.3 ± 0.23

Reference: the supplement of paper PMC11417369
